PubChem BioAssay AID485294 (National Center for Advancing Translational Sciences (NCATS), 2010)
Out of some 370,000 compounds screened, about 150 (0.041%) were called active. This list was built around the results that the source calls inconclusive (neither active nor inactive); the mix of calls is not that of the screen. Calls follow the shape of the dose curve; as a rule, active = well fitted inhibition curve with a large enough effect; inconclusive = small, poorly fitted or top-dose-only effect; inactive = flat fitted curve, though single readings scatter. Potencies of inconclusive entries are left out as doubtful fits.

Target: Beta-lactamase (Escherichia coli (strain K12)) (UniProt P00811)
Experiment: qHTS Inhibitors of AmpC Beta-Lactamase (assay with detergent); also: nearly all actives have a fitted effect of over 25% in size
Settings: AmpC hydrolysis of nitrocefin, absorbance 480 nm, 0.01% Triton; series mostly up to 114 µM
Summary of the method: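 20 mM phosphate pH 7.0 + 0.01% (detergent screen) or 0.0001% Triton X-100; 5.3 nM AmpC reagent; cpd preinc 15 min RT; nitrocefin (800 uM stock) to start; A480 q20 s × 4 min; Activity was normalised to no-enzyme and no-compound control wells.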
Potency is read from the fitted curve at half-maximal effect; tags tell the direction and shape of the fitted curve.

Sequence of UniProt P00811 (P00811 whole entry, looked up): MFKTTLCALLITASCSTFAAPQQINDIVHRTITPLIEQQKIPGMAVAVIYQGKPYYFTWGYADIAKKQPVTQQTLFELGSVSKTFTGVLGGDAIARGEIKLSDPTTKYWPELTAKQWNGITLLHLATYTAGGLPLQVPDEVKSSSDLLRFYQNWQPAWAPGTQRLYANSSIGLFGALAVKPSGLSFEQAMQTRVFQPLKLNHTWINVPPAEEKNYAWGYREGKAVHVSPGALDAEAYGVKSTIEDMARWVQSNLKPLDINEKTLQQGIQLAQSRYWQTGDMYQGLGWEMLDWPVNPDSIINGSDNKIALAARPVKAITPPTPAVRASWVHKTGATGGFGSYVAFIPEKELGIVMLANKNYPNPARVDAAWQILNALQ

Compound	Potency
Cc1c(C(=O)N2CCCCCC2)c(S(=O)(=O)Nc2cccc(C#N)c2)c(C)n1C	inactive
O=C(Nc1ccncc1)Nc1cccc(Cl)c1Cl	inconclusive [inhibitor, full curve, poor fit]
CCN1C(=O)/C(=C\N2CCCCCC2)SC1=S	inconclusive [inhibitor, full curve]
COCCN(C(=O)COC(=O)C(c1ccccc1)c1ccccc1)c1c(N)n(Cc2ccccc2)c(=O)[nH]c1=O	inconclusive [inhibitor, partial curve]
O=C(CCSc1ccccc1)Nc1nc2c(s1)COc1ccccc1-2	inconclusive [inhibitor, full curve, poor fit]
Cc1c(C(=O)NCc2ccc3c(c2)OCO3)oc2ccc(S(=O)(=O)N3CCCCCC3)cc12	inactive
Nc1c(C(=O)Nc2ccc3c(c2)OCCO3)nnn1Cc1cccc(Cl)c1	inconclusive [inhibitor, full curve, poor fit]
CCC1(C)Cc2nc(Cl)c(C#N)cc2CO1 (stereo unspecified)	inactive
CCOc1cc(N2CCOCC2)c(OCC)cc1NC(=O)Cc1cn2ccsc2n1	inconclusive [inhibitor, full curve, poor fit]
COc1ccc(C2/C=C\CN(C(=O)Nc3ccccc3-c3ccccc3)CC(=O)N2Cc2ccc(F)cc2)cc1 (stereo unspecified)	inactive
CC(C)N(CCn1c(SCC(=O)Nc2cccnc2Cl)nc2ccccc2c1=O)C(C)C	inconclusive [inhibitor, full curve, poor fit]
O=C(CSc1nc2ccccc2s1)Nc1cc(S(=O)(=O)N2CCOCC2)ccc1O	inconclusive [inhibitor, full curve, poor fit]
COc1ccc(C2C3C=CCC(c4cccc(-c5ccc(C)cc5)c4)C3C(=O)N2Cc2ccccc2)cc1Cl (stereo unspecified)	inactive
Cc1c(Cl)c(-c2n[nH]c(=S)n2CC(C)C)nn1C	inconclusive [inhibitor, full curve, poor fit]
CC(=O)c1cccc(NC(=O)C(C)OC(=O)/C=C/c2cccs2)c1 (stereo unspecified)	inconclusive [inhibitor, single point]
COc1ccc(N(CC(=O)Nc2nccs2)S(=O)(=O)c2c(C)nn(C)c2C)cc1	inconclusive [inhibitor, full curve, poor fit]
Cc1nc(-c2cccc(NC(=O)Cc3ccccc3)c2)cs1	inconclusive [inhibitor, full curve, poor fit]
Cc1ccc(-n2ncc3c(NCCCN4CCOCC4)ncnc32)cc1Cl	inactive
CC(=O)c1cc(C)ccc1OC(=O)c1ccncc1	inconclusive [inhibitor, full curve, poor fit]
CCn1c(SCC(=O)c2cc(C)n(C)c2C)nnc1-c1ccccc1	inconclusive [inhibitor, full curve, poor fit]
COc1ccc(CNC(=O)N2CCN(c3cccc(Cl)c3)CC2)cc1OC	inconclusive [inhibitor, partial curve]

Compound	Potency
Cc1ccccc1NS(=O)(=O)c1ccc(OCC(=O)N2CCCCC2)cc1	inconclusive [inhibitor, single point]
Cc1ccc(S(=O)(=O)c2cnc3cc(C)nn3c2N)cc1	inconclusive [inhibitor, partial curve, poor fit]
CCC(C)N(C(=O)CSc1nc2ccc(OC)cc2[nH]1)C1CCS(=O)(=O)C1 (stereo unspecified)	inconclusive [inhibitor, full curve, poor fit]
Cc1ccccc1NN=Nc1nc2c([nH]1)c(=O)n(C)c(=O)n2C	inconclusive [inhibitor, full curve, poor fit]
O=C(O)c1nc(-c2ccccc2)n(-c2ccccc2)n1	inconclusive [inhibitor, full curve, poor fit]
CC(C)NC(=O)C1CC(=O)N(C(C)c2ccccc2)C1 (stereo unspecified)	inconclusive [inhibitor, full curve, poor fit]
Cc1[nH]nc2c1C(c1ccc(Cl)cc1)C(C#N)=C(N)O2 (stereo unspecified)	inconclusive [inhibitor, partial curve, poor fit]
CCc1ccc(NC(=O)c2cc(S(=O)(=O)N3CCCCCC3)ccc2F)cc1	inactive
CCOc1nc2cnccc2n(CC(=O)Nc2c(C)cccc2CC)c1=O	inactive
CN(C)c1ccc(N=C/C=C2\N(C)c3ccccc3C2(C)C)cc1	inactive
COc1ccc(NC(=O)CS(=O)CC(=O)Nc2ccc(OC)c(OC)c2)cc1 (stereo unspecified)	inconclusive [inhibitor, full curve, poor fit]
O=C(CSc1nnc(-c2ccc(F)cc2)c2ccccc12)NCC1CCCO1 (stereo unspecified)	inconclusive [inhibitor, partial curve]
Cc1nc(NC(=O)CN2CCC(O)(c3ccc(F)cc3)CC2)sc1C	inconclusive [inhibitor, partial curve]
Cc1ccc(CC(=O)Nc2nc3ccccc3s2)cc1	inactive
CC[C@@]12C(=O)N(c3ccc(C)cc3)C(=O)N1[C@H](c1cccc(C)c1)[C@@H]1C(=O)N(Cc3ccccc3)C(=O)[C@@H]12	inconclusive [inhibitor, partial curve]
Cc1ccc(-n2c(SCC(=O)Nc3ccc4c5c(cccc35)CC4)nc(O)c(C)c2=O)cc1	inconclusive [inhibitor, full curve]
Cc1ccc(Cl)c(OCC(=O)NC2CCN(Cc3ccccc3)CC2)c1	inconclusive [inhibitor, full curve, poor fit]
COc1ccccc1N=C1SC(C(=O)Nc2ccc(F)cc2)CC(=O)N1C (stereo unspecified)	inconclusive [inhibitor, partial curve, poor fit]
C/C(=N/NC(=S)Nc1cccc(C)c1)c1cccc([N+](=O)[O-])c1	inactive
CCC[C@@H]1C[C@@]1(CCC)[C@@H](NC(=O)c1ccccc1)c1ccc(C(=O)OC)cc1	inconclusive [inhibitor, full curve, poor fit]
